Data as given in paper PMC4057743.
These are yes or no findings as the source states them, for the method shown. Some entries that bind do so weakly or less than the wild type.

Chains of the proteins cited; added tags and fusions are not shown. Lines headed by an entry give the natural chain unless they say otherwise; changes in a name come on top. Residues count along the entry.
UniProt Q84MC7: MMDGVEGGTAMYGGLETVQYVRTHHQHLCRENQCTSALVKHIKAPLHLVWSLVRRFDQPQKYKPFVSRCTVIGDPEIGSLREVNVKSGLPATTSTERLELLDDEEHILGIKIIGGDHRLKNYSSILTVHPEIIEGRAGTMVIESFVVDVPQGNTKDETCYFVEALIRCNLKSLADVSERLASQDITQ
UniProt O49686: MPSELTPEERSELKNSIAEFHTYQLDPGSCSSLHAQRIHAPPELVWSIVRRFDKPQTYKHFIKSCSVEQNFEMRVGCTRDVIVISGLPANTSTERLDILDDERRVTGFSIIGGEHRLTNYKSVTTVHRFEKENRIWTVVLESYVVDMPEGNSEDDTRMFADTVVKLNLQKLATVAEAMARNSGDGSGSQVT
UniProt Q9FDW1: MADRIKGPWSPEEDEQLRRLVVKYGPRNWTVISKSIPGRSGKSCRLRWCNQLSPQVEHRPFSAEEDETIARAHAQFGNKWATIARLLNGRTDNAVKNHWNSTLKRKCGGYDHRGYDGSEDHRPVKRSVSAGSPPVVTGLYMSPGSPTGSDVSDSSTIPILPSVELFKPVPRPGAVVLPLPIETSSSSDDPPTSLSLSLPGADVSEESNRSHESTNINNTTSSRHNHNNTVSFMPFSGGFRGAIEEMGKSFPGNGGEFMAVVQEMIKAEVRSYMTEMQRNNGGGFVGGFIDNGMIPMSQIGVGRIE
UniProt Q9SN12, residues 26-286: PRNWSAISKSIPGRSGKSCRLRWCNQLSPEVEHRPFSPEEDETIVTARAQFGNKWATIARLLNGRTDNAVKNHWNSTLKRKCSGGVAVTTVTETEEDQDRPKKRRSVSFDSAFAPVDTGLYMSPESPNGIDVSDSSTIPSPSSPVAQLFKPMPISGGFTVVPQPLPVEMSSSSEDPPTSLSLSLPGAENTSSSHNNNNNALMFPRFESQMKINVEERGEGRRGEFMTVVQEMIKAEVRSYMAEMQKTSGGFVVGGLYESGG
UniProt O23160: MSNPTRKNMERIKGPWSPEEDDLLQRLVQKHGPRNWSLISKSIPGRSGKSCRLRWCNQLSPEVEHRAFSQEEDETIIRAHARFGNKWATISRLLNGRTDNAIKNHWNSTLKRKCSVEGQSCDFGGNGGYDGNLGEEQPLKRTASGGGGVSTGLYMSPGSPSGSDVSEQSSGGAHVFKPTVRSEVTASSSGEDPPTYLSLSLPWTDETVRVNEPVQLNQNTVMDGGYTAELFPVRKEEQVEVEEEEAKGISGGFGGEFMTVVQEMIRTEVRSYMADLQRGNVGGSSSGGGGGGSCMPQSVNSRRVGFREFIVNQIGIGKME

Experiments:
[1] = molecular target: RCAR1/PYL9 bait (pGBKT7) (Arabidopsis) (UniProt Q84MC7); experiment: two-hybrid; screen of an Arabidopsis GAL4 AD/cDNA library with RCAR1/PYL9 as bait
[2] = molecular target: full-length RCAR11/PYR1 bait (pGBKT7) (Arabidopsis) (UniProt O49686); experiment: two-hybrid; AH109 yeast; baits in pGBKT7, preys in pGADT7; growth on SD/-L-T-H-A and X-α-Gal staining, 3 days at 30 °C; with or without 10 μM ABA in the medium
[3] = molecular target: T1, full-length RCAR3/PYL8 bait (pGBKT7) (Arabidopsis) (UniProt Q9FGM1); experiment: as above
T1 sequence: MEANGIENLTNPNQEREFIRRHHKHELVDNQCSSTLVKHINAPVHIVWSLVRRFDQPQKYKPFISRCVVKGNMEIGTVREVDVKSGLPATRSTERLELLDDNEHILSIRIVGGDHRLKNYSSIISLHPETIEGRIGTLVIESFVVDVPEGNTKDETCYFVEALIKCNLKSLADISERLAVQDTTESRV

[4] = molecular target: T2, full-length RCAR8/PYL5 bait (pGBKT7) (Arabidopsis) (UniProt Q9FLB1); experiment: as above
T2 sequence: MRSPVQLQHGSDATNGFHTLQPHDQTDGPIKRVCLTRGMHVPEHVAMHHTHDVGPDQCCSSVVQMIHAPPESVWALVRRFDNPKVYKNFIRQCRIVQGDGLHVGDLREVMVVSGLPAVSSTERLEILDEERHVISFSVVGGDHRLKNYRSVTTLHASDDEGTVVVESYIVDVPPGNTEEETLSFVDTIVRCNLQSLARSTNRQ

[5] = molecular target: RCAR1/PYL9 bait (pGBKT7) (Arabidopsis) (UniProt Q84MC7); experiment: as above

AtMYB44 library clone (residues 48-305) (from UniProt Q9FDW1 48-305) (domain or fragment)
binding [1]: binds

AtMYB77 library clone (residues 26-286) (from UniProt Q9SN12 26-286) (domain or fragment)
binding [1]: binds

full-length AtMYB44 prey (pGADT7) (from UniProt Q9FDW1 1-305)
binding [2]: no binding
binding [3]: binds
binding [4]: no binding

full-length AtMYB73 prey (pGADT7) (from UniProt O23160 1-320)
binding [5]: binds
